Test results as given in the supplement of paper PMC10126150.
Sequences with one replicate were seen in a single cluster, so their values are uncertain.

Test system: ATP
Assay: switch fluorescence ratio, 500 uM ATP over buffer (Cy3 cluster intensity, sum of 5 cycles each) (fold (ratio)); higher = stronger signal-on switching upon ATP binding; sequences stand for … in TCGTCGGCAGCGTCAGATGTGTATAAGAGACAGTTTTTTTTTTTTTTTTTTTTTTTTT…TC
Details: aptamer strand: ATP DNA aptamer (quencher-CACCTGGGGGAGTATTGCGGAGGAAGG + anchor), 100 nM annealed; ATP concentration: 500 uM; one replicate
Summary of the method: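 Exposure to 500 uM ATP lasted 15 min at 22 °C before imaging, and a selection-buffer image was taken beforehand, for Cy3-labelled switching-strand clusters on a modified Illumina MiSeq flow-cell annealed to 100 nM quencher-labelled ATP aptamer. Five buffer/ATP cycles were run with NaOH stripping and re-annealing between them. The fluorescence ratio per cluster is summed target-cycle over summed buffer-cycle Cy3 intensity, averaged per switch-domain sequence. Clusters outside 100-1000 RFU were excluded.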

Row | Sequence | switch fluorescence ratio
1 | CCCGGATACT | 2.48
2 | CGGGAAATTT | 1.38
3 | CTATTGAAAG | 1.01
4 | AGGTGTGATC | 1.04
5 | CAACACGCAT | 1.96
6 | TGGTGTAAAG | 0.989
7 | AACGGATACC | 1.12
8 | AAACGGCG | 0.994
9 | GTCGACGGCG | 0.948
10 | GGGTCAGTTA | 1.01
11 | GGTTTCATTA | 1.05
12 | GTTATCACG | 0.958
13 | TCAGAGAAGG | 0.995
14 | GACAGTAACT | 1.08
15 | TATGATAAC | 1.01
16 | GGCGAATAAT | 0.997
17 | TGGTGGTGCT | 1.02
18 | AGGTCTTAGT | 0.988
19 | AGACGATAAG | 0.96
20 | AGAATGTGGT | 0.951
21 | GGCTCTTGTT | 1.02
22 | AAAGTACTAT | 1.19
23 | ATCCCGTTGC | 1.1

Row | Sequence | switch fluorescence ratio
24 | AGGCCTCTA | 1.01
25 | CACTCAGTAT | 0.994
26 | AATCTCCCCT | 1.57
27 | GTAGTTACCC | 1.04
28 | TCCCCGGCTG | 2.45
29 | AGGACACAG | 0.997
30 | CGTATTACGG | 1.02
31 | CGGCATATGT | 0.999
32 | TCGGTTGTAG | 0.99
33 | AACTACTGTT | 1.02
34 | CAGCGGGCTA | 1.04
35 | ATCTTTTCTG | 1.02
36 | AAGCTTGTGC | 1.03
37 | ACGTCTACCT | 1.35
38 | CCAGAAAGTT | 0.997
39 | ACCCCCGGGT | 1.35
40 | CCTTGAAGCC | 1.17
41 | TGTACGTTGC | 1.04
42 | CGTATGCGAC | 1.05
43 | TTTAACAAGT | 0.996
44 | GCCAAAGTGG | 1
45 | CAAGGACTTA | 0.968
46 | CGAGATAGAT | 1.01

Row | Sequence | switch fluorescence ratio
47 | ATCGGTAAAT | 0.97
48 | ATACTTAGGG | 1.08
49 | AAGAAGAAGC | 0.916
50 | AGCATATGTT | 1.03
51 | TGTGGTTGCT | 1.02
52 | ATAGCGAGGC | 1.14
53 | TTTGAGTTCT | 0.984
54 | TTGTGATGCG | 1.04
55 | AAAAATCCAT | 1
56 | TAGTAGCTAA | 2.15
57 | CTCAATCTGG | 0.981
58 | CCAAATCCAG | 1
59 | ATGAGCTTGT | 1.59
60 | CCGTGCAAGG | 2.79
61 | TGGTGTCCTG | 0.978
62 | TCTTGACCCT | 1.03
63 | GGTAAGCCTC | 1.05
64 | ATCAGTTTAT | 1.01
65 | TTAGCCAGAT | 1
66 | AATGTCACGT | 1.02
67 | GGGAAGGCTT | 1.03
68 | TGAGTTTAAA | 0.932
69 | TGGTGTCGGA | 1.13

Row | Sequence | switch fluorescence ratio
70 | TTCAGTGCAA | 1.35
71 | TTAGTATTGT | 0.991
72 | CAAACCTCCA | 1.28
73 | GGGGACAG | 0.994
74 | AGTGCCCTCA | 1
75 | TGATGGTTG | 0.957
76 | ATGAATTTA | 0.998
77 | TTCATTCGGT | 1.01
78 | TCCACCGGTG | 1.13
79 | AGCTCGTTCC | 1.15
80 | GTGTATGTAG | 0.996
81 | CAGTGGCAG | 0.972
82 | CATTATATTG | 1.01
83 | CATGTAGGTA | 0.98
84 | ACTGGAAGAA | 1.02
85 | CCCCGGGTAC | 2.02
86 | ATGTGGATCC | 0.966
87 | CCAGGCATGC | 1.31
88 | AATAGGGTAG | 1.03
89 | TAGTCACT | 0.998
90 | AACATTGCTC | 1.26
91 | CCGGAAAGAT | 1.04
92 | TTACTGTTT | 0.994

Row | Sequence | switch fluorescence ratio
93 | GCTTGACGCG | 0.984
94 | TATCTTATAG | 1.02
95 | GTTCGCTATG | 1.05
96 | AAGGCGCGTT | 0.983
97 | TACTGGATAT | 1.02
98 | CCACACTTGA | 1
99 | CGTCTGTTGG | 0.98
100 | CGGCTGCCTG | 1.04
101 | ATATAGCAAG | 1.06
102 | ATCGGAATAG | 1.01
103 | ATCCGCCGCG | 2.46
104 | TCGTTGAGAG | 1.04
105 | CTGGTGTAGG | 1
106 | TCTGTCTGGA | 0.969
107 | TTCAGGAGGT | 0.973
108 | CGTGGTAGGC | 0.999
109 | TATTTTGGCA | 0.984
110 | TGGTAGGAAT | 1.06
111 | GTAACATCTA | 1.02
112 | GCCCCGGGT | 0.981
113 | TTTGCGGAC | 1.13
114 | TAGGGGGTG | 1
115 | CTCTGATGT | 1.02

Row | Sequence | switch fluorescence ratio
116 | CATTAGGGTT | 1.02
117 | CTTAGGGTTA | 0.982
118 | AACCGATCCC | 1.41
119 | ATACTTACTC | 1.28
120 | GAGCGTACAG | 1.05
121 | TCGTGGGGCT | 0.966
122 | TTGGCGTAGA | 1.02
123 | TTTGGTATCC | 1.05
124 | TAGGACTGAA | 0.978
125 | GCTTAATATC | 1.06
126 | CGGTTTCGCG | 1.02
127 | ACTTGATAGA | 1.01
128 | AGACAATTCG | 1.04
129 | ACTGTGGGG | 1.01
130 | GTATGTAGTT | 0.997
131 | CCAATGCATT | 1.22
132 | AGCACCGTG | 1.02
133 | CCGTCGGTG | 1.1
134 | ATCTAGGGCA | 0.967
135 | CGGAAGCTGT | 1.02
136 | CCCATGGCAG | 1.02
137 | AGATTAGCTT | 1.02
138 | GCATGCCCTT | 1.02

Row | Sequence | switch fluorescence ratio
139 | GGGAAAAGCC | 0.999
140 | AAAATCCTTC | 1.37
141 | CGTTATTAAA | 0.982
142 | CTCGATCTCT | 0.966
143 | CCGACTTGGG | 1.03
144 | ATGAGAAGT | 0.984
145 | TGGTTTCTTA | 0.962
146 | GGGCAATGCA | 1.12
147 | TAAGCTAAT | 1.1
148 | TTTGAGTACA | 1.03
149 | TAGTAAATTC | 0.97
150 | GTTTTCCTGA | 0.999
151 | ACATTCCCCG | 1.07
152 | ATAGTTTTGC | 1.05
153 | TGGTTGGTAC | 1.05
154 | AGGGCGCCTT | 1.08
155 | TATAGCCATT | 1.01
156 | ATATGGAGGT | 0.987
157 | TCTTCTGGTA | 0.953
158 | TGTACCGGGT | 0.999
